Assay results published in PubChem BioAssay AID1159614 (National Center for Advancing Translational Sciences (NCATS), 2016).
Out of some 45,000 compounds screened, about 65 (0.1%) were called active. Calls follow the shape of the dose curve; as a rule, active = well fitted activation curve with a large enough effect; inconclusive = small, poorly fitted or top-dose-only effect; inactive = no such curve, though single readings can be large or run the other way. The list shows a part of the results.

target: Galactocerebrosidase (Homo sapiens) (UniProt P54803); assay: A Novel Cell-Based Assay to Identify Small Molecules for B -Galactocerebrosidase; details: 145M-Twi-hGALC-G270D cells (Twitcher mouse brain line with human GALC G270D), HMU-beta-Gal fluorescence, 48 h; series mostly up to 57.5 µM; activation: at the top concentration; also: 0% is about no effect; nearly all actives have a fitted effect of over 65% in size
UniProt P54803, sequence (P54803 whole entry, looked up): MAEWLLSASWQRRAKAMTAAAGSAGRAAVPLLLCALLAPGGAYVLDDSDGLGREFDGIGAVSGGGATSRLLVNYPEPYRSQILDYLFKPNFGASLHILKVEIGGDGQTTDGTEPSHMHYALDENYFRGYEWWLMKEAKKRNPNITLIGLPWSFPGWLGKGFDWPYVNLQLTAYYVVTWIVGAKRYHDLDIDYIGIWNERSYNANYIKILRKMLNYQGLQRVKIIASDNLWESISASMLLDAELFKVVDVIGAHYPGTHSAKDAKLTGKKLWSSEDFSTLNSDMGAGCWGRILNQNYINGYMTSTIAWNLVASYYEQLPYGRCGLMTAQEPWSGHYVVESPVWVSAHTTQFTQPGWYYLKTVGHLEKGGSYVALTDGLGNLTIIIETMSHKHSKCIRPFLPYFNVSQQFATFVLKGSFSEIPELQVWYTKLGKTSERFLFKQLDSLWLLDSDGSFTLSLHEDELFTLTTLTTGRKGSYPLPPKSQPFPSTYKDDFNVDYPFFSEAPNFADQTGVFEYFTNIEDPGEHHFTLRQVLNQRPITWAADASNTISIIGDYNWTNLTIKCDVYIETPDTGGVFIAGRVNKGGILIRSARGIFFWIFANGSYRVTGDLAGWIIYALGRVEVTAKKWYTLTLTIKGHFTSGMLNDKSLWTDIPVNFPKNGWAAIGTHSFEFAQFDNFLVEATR
Procedure, shortened: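 Live 145M-Twi cells (Twitcher mouse brain-derived, GALC-null) stably expressing human GALC-G270D, with a wild-type GALC line, were compound-treated. Residual GALC activity was then read as fluorescence from 0.1 mM final HMU-β-gal at pH 5.2; higher signal means activation.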

activation, inactive:
Cc1oc(-c2cccc(Cl)c2)nc1CSc1nnc(C)n2c1cc1occc12 -13.1%
CC(=O)c1cc(-c2ccccc2)n(CCC(=O)NCCc2ccccc2)c1C -13%
CC(=O)NCc1nc2cccnc2n1Cc1ccccc1 1.43%
COC(=O)c1c(NC(=O)c2nc(SC)ncc2Cl)sc2c1CCCC2 -2.24%
Cc1ccc(Cc2nc3ccccc3nc2SCC(=O)NCCc2ccccc2)cc1 -1.21%
Cc1cccc(Cc2c(C)nc3nc(SCC(=O)NCc4ccc(F)cc4)nn3c2C)c1 -17.1%
C/C(=C1\CCOC(=O)S1)N(C=O)Cc1cnc(C)nc1N -3.5%
CCc1cccc(C)c1NC(=O)Cn1c(=O)n(-c2cccc(C)c2)c(=O)c2c1c1cc(C)ccc1n2C -18.5%
COc1ccccc1N1CCN(C(=O)Cn2cnc3sc(C)c(S(=O)(=O)N4CCC(C)CC4)c3c2=O)CC1 -5.63%
COc1ccc(Cl)cc1N(C)C(=O)Cc1noc2ccc(C)cc12 -13.1%
COc1cccc(-c2nc(SCc3ccc(C)cc3)n3[nH]c(=O)cc3n2)c1 -5.78%
CC(C)(C)OC(=O)N1CCC(c2c(C(=O)N3CCC(c4ccccc4)C3)cnn2-c2ccc(Cl)cc2)CC1 (configuration not stated) -14.9%
Cc1ccc(C)c(N2CCN(c3nc4ccc(Cl)cc4n4cnnc34)CC2)c1 10.4%
CCOC(=O)c1c(C)oc2ncnc(N3CCN(c4ccccc4)CC3)c12 -20.8%
O=[N+]([O-])c1ccc(S(=O)(=O)N2CCn3cccc3C2c2ccccc2F)cc1 (configuration not stated) -19.6%
CC(NC(=O)C1CCN(S(=O)(=O)c2ccc3c(c2)oc(=O)n3C)CC1)c1ccccc1 (configuration not stated) -14.8%
CN(C(=O)c1c2c(nc3ccccc13)C(=O)N(C1CCCCC1)C2)c1ccc(F)cc1 -12.4%
COC(=O)c1c(SCC(=O)Nc2cccc(Cl)c2C)[nH]c2ccccc2c1=O -15.5%
Cc1ccc(S(=O)(=O)NCCc2csc3nc(-c4ccccc4F)nn23)cc1C -8.58%
Cc1ccc(-c2cc3c(n2-c2ccc(F)cc2)CC(C)(C)CC3=O)cc1 -13.5%
Cc1ccccc1OCc1nnc(SCc2cc(=O)c3ccc(C)c(C)c3[nH]2)n1C -2.81%
COc1ccccc1-c1nc(S(=O)(=O)c2ccccc2)c(N2CCC(C)CC2)o1 -22.8%
COc1ccc(Nc2nc3ccccc3nc2NS(=O)(=O)c2ccc(Cl)cc2)cc1OC -35.6%
COc1ccccc1CCNC(=O)C(=O)NCC(c1ccco1)S(=O)(=O)c1ccccc1 (configuration not stated) -17%
Cc1cccc(NC(=O)CSc2nc3ccccc3c3nc(CCc4c(C)n[nH]c4C)nn23)c1 -7.18%
CCC(C(=O)NCc1cccc(Br)c1)n1nc(C)c2c(C)n(-c3ccccc3)nc2c1=O (configuration not stated) -13.8%
CC(=O)Nc1ccc(NC(=O)c2cnn(-c3ccccc3)c2C2CCN(C(=O)OC(C)(C)C)CC2)cc1 -9.03%
O=S(=O)(Nc1cccc(F)c1)c1ccc2[nH]c3c(c2c1)CCCCC3 -9.22%
CCOC(=O)c1cccc(NC(=O)CSc2nc3cc4ccccc4cc3[nH]2)c1 -18.1%
CC(C)c1cnc2c(c1SCC(=O)O)c(=O)n(C)c(=O)n2C -13.4%
NS(=O)(=O)c1cc(C(=O)NN2C[C@H]3[C@H]4CCC(C4)[C@H]3C2)ccc1Cl -17.7%
COc1cc(OC)cc(C(=O)Nc2ccc3c(c2)OCCO3)c1 -14%
O=C(CNC(=O)c1ccccc1F)OCc1cc(=O)n2nc(C3CC3)sc2n1 -11.9%
CCOc1ccccc1Nc1nnc(-c2cc3cc(Cl)ccc3oc2=O)s1 -16.5%
CC(NC(=O)c1cc2ccccc2o1)c1ccccc1 (configuration not stated) -15.8%
CCC(=O)N1CCc2cc(CNC(=O)c3ccc(C#N)cc3)ccc21 -6.19%
COc1ccccc1CN1CCN(C2CCN(C(=O)Nc3ccccc3)CC2)C(=O)C1=O -16%
Cc1ccc(NC(=O)Cn2c(-c3nonc3N)nc3ccccc32)cc1C 0.219%
CCc1ccc(S(=O)(=O)c2cn(C)c3cc(F)c(F)cc3c2=O)cc1 -12.6%
CCOC(=O)c1c(C)[nH]c(C)c1S(=O)(=O)N1CCCC(C(=O)Nc2cccc(C)n2)C1 (configuration not stated) 1.9%
CCOc1ccc(NC(=O)CSC2=Nc3ccccc3C3=NC(Cc4ccccc4)C(=O)N23)cc1 (configuration not stated) -19.7%
CCCn1nc(NC(=O)c2cccc(Cl)c2)c2cc3cccc(C)c3nc21 -1.62%
COc1ccc(-c2nc3sc(CCNC(=O)C(=O)Nc4ccc(C)c(F)c4)c(C)n3n2)cc1 -17.6%
COc1cc(NC(=O)c2cc3ccc4cccnc4c3[nH]2)cc(OC)c1OC -2.12%
COc1ccccc1N1CCN(S(=O)(=O)CCNC(=O)C2CC(=O)N(c3ccccc3)C2)CC1 (configuration not stated) -8.85%
CCS(=O)(=O)c1oc(-c2ccc(F)cc2)nc1S(=O)(=O)c1ccc(Br)cc1 -18.1%
CC(Nc1ccc(-c2nc(-c3ccco3)no2)cc1[N+](=O)[O-])c1ccccc1 (configuration not stated) -0.228%
Cc1ccccc1NC(=O)CCNC(=O)Cn1ccc2ccccc2c1=O -17.6%
CC(C)(C)C(=O)Nc1cccc(C(=O)OCc2cc(=O)n3nc(C4CC4)sc3n2)c1 15.6%
O=C1CN(C(=O)COc2ccc(Cl)cc2)C(c2ccc(F)cc2)c2cc(Br)ccc2N1 (configuration not stated) -8.48%
CC(=O)C1=C(c2ccc(Cl)c(Cl)c2)N(C(C)=O)n2cnnc2S1 -16.7%
Cc1ccc(NC(=O)N2CCN(Cc3nc4ccc(C)cc4o3)CC2)c(Cl)c1 0.722%
CCOC(=O)c1ccc(NC(=O)CSc2nc(-c3cccs3)cc(C(F)(F)F)c2C#N)cc1 -8.34%
CCOC(=O)N1CCc2c(sc(NCc3sccc3C)c2C(=O)Nc2cc(Cl)ccc2OC)C1 -11.1%
CCS(=O)(=O)c1nc(S(=O)(=O)c2ccc(C)cc2)c(NCC(C)C)s1 -14.7%
O=C(Cn1c(=O)oc2cc(S(=O)(=O)NCc3ccccc3)ccc21)NCc1ccccc1Cl -4.67%
Nc1ccc2nc(-c3ccc(O)cc3)sc2c1 -12.6%
CCOC(=O)c1cc(-c2ccccc2)n(CCC(=O)Nc2cc(C)cc(C)c2)c1C -13.6%
COc1ccc(NC(=O)CC2C(=O)N(c3ccc(F)cc3)C(=O)N2CCc2sccc2C)cc1 (configuration not stated) -8.7%
Cc1ccc2scc(N3CCCCC3)c(=O)c2c1 -6.39%
COCCCNC(=O)c1cnn(-c2ccc(F)cc2F)c1C1CCNCC1 -14.3%
N#C/C(=C1/SC[C@@H](c2ccc(Cl)cc2Cl)S1)n1ccnc1 -11.9%
CN(Cc1ccccc1)C(=O)C1CCC(CNS(=O)(=O)c2ccc3c(c2)CCCC(=O)N3)CC1 (configuration not stated) -5.7%
Cc1ccc2nc(NC(=O)c3nc(SCc4ccccc4C)ncc3Cl)sc2c1 1.48%
Cc1ccc(N2CCN(C(=O)C3CCN(c4ncnc5c4nc4n5CCCCC4)CC3)CC2)c(C)c1 -2.63%
COc1cc([C@H]2Oc3cc([C@H]4Oc5cc(O)cc(O)c5C(=O)[C@@H]4O)ccc3O[C@@H]2CO)ccc1O 22.2%
CC(=O)N1CCC2(CC1)OC(=O)C(C)=C2C(=O)NCc1cccc(Cl)c1 -20.8%
O=C(O)CCc1nnc2cnc3ccccc3n12 -11.6%
Cc1ccc2ncc(C(=O)NC(C)c3ccccc3)c(=O)n2c1 (configuration not stated) -18.5%
Cc1ccc(CN2CCCn3nc(C(=O)NCc4cc(C)ccc4C)cc3C2=O)cc1 -21.7%
Cc1ccc(C(=O)Nc2nnc(S(=O)(=O)N3CCN(c4ccc(F)cc4)CC3)s2)cc1 -3.25%
O=[N+]([O-])c1cc(-c2nc(-c3ccccn3)no2)ccc1NCc1ccccc1 -24.8%
Cc1ccc(CNC(=O)c2cnc3c(-c4ccccc4)c(C)nn3c2C)o1 -6.88%
C[N+](C)(C)CC(O)CC(=O)[O-] (configuration not stated) -2.61%
Cc1ccc(N2CCN(C(=O)c3c(C)oc4ncnc(N5CCOCC5)c34)CC2)c(C)c1 -11.8%
Cc1ccc(N2C(=O)CS(=O)(=O)C23C(=O)N(C)c2ccccc23)cc1F (configuration not stated) -16.5%
Cc1ccc(C)c(Nc2cc(C(=O)NCCCN(C)C3CCCCC3)c3ccccc3n2)c1 -8.51%
COc1cc(NC(=O)NCC2CCN(Cc3ccc(C)cc3)CC2)cc(OC)c1OC -10.1%
COCCCNC(=O)CCC(=O)NNc1nc2ccccc2c2nc(-c3ccccc3)nn12 -10.4%
O=C(NCCc1ccccc1)C(=O)NCC(c1ccco1)S(=O)(=O)c1ccccc1 (configuration not stated) -6.34%
CCOc1ccc(NC(=O)CSc2nnc(-c3ccncc3)n2-c2ccccc2)cc1 -16.6%
COCCNC(=O)CSc1nc2cc3c(cc2c(=O)n1Cc1ccc(C(=O)NCCc2ccc(OC)c(OC)c2)cc1)OCO3 -4.18%
COc1ccc(NC(=O)C(C)n2nc(-c3cc(C)ccc3C)c3c(c2=O)CCCC3)cc1 (configuration not stated) -10%
CCc1cccc(NC(=O)CSc2ncc3c(n2)-c2ccccc2N(CC)S3(=O)=O)c1 -5.69%
COc1ccc(CNC(=O)c2ccc(CSc3nc4ccncc4n3Cc3ccccc3F)cc2)cc1 -12.5%
Nc1c[n+](N2CCOCC2)no1 -13.4%
COc1ccc(NC(=O)Cn2c(=O)n(Cc3ccccc3)c(=O)c3oc4ccccc4c32)cc1Cl -5.94%
Cc1nc2c(C(=O)NCc3ccccc3Cl)cnn2c(C)c1Cc1ccccc1 -11.1%
Cc1nc(N2CCCC2)ncc1C(=O)N1CCN(c2ccc(Cl)cc2)CC1 -14.2%
Cc1ccc(C)c(-n2cc(-c3ccccc3)nc2SCC(=O)Nc2ccccc2)c1 -10.8%
CCOc1ccc(Nc2ncnc3c2cnn3-c2ccc(F)cc2)cc1 -11.3%
CCOC(=O)C(=O)Nc1nnc2n1CCS2 -17.4%
CCOC(=O)c1ccccc1NC(=O)Cn1c(=O)n(CCCC(=O)NCc2ccc3c(c2)OCO3)c(=O)c2ccccc21 6.29%
CCCCOc1cc(C(=O)OCCN(CC)CC)ccc1N -10.6%
Cn1cc(S(=O)(=O)N2CCCCC2)cc1C(=O)N1CCN(c2ccccc2F)CC1 7.65%
O=C(CSc1nc2c([nH]c3ccccc32)c(=O)n1-c1ccc(Cl)cc1)N1CCCCCC1 -13.4%
COc1cccc(-c2csc(-c3c(N)c(C(=O)c4ccccc4)n4ccccc34)n2)c1 -19.3%
